Results from a collection of fitness landscapes (doi:10.1126/science.1257360).
Some of the results follow.

B1: PhoQ; a variant is named by its letters at X, in order, P23837 (parent)
chain: MKKLLRLFFPLSLRVRFLLATAAVVLVLSLAYGMVALIGYSVSFDKTTFRLLRGESNLFYTLAKWENNKLHVELPENIDKQSPTMTLIYDENGQLLWAQRDVPWLMKMIQPDWLKSNGFHEIEADVNDTSLLLSGDHSIQQQLQEVREDDDDAEMTHSVAVNVYPATSRMPKLTIVVVDTIPVELKSSYMVWSWFIYVLSANLLLVIPLLWVAAWWSLRPIEALAKEVRELEEHNRELLNPATTRELTSLVRNLNRLLKSERERYDKYRTTLTDLTHSLKTPLXXLQXXLRSLRSEKMSVSDAEPVMLEQISRISQQIGYYLHRASMRGGTLLSRELHPVAPLLDNLTSALNKVYQRKGVNISLDISPEISFVGEQNDFVEVMGNVLDNACKYCLEFVEISARQTDEHLYIVVEDDGPGIPLSKREVIFDRGQRVDTLRPGQGVGLAVAREITEQYEGKIVAGESMLGGARMEVIFGRQHSAPKDE

Variants of: B1
Experiment: enrichment ratio after two sorts for PhoP signalling (ratio (wild type AVST 3.29)); higher = more functional
Details: with PhoP (E. coli)

Row | Variant | enrichment ratio
1 | TFIC | ≤ 0.25
2 | RRRC | ≤ 0.25
3 | LSSM | ≤ 0.25
4 | PMDA | ≤ 0.25
5 | SNDY | ≤ 0.25
6 | ENVC | ≤ 0.25
7 | ACFK | ≤ 0.25
8 | ENDL | ≤ 0.25
9 | VLHH | ≤ 0.25
10 | IKAR | ≤ 0.25
11 | ETSP | ≤ 0.25
12 | KLYV | ≤ 0.25
13 | PHSS | ≤ 0.25
14 | KTLR | ≤ 0.25
15 | VMDR | ≤ 0.25
16 | YMRQ | ≤ 0.25
17 | GEDI | ≤ 0.25
18 | IHKM | ≤ 0.25
19 | RDNQ | ≤ 0.25
20 | VSYM | 5.7
21 | ITMA | ≤ 0.25
22 | TGAM | 13
23 | IFML | ≤ 0.25
24 | EDRP | ≤ 0.25

Row | Variant | enrichment ratio
25 | VRYE | ≤ 0.25
26 | FWEH | ≤ 0.25
27 | LHWK | ≤ 0.25
28 | SYFM | ≤ 0.25
29 | WMSV | ≤ 0.25
30 | DLRR | ≤ 0.25
31 | PLVT | ≤ 0.25
32 | RSMT | ≤ 0.25
33 | GFSK | ≤ 0.25
34 | NAYY | ≤ 0.25
35 | AIRH | ≤ 0.25
36 | RALT | ≤ 0.25
37 | DSER | ≤ 0.25
38 | VNRL | ≤ 0.25
39 | MFYF | ≤ 0.25
40 | AVFK | ≤ 0.25
41 | NHMQ | ≤ 0.25
42 | REMQ | ≤ 0.25
43 | GDSA | ≤ 0.25
44 | GGMS | 1.56
45 | SNTS | 8.3
46 | PRLW | ≤ 0.25
47 | NFRT | ≤ 0.25
48 | HHSF | ≤ 0.25

Row | Variant | enrichment ratio
49 | TQDY | ≤ 0.25
50 | DFYN | ≤ 0.25
51 | RNHC | ≤ 0.25
52 | NRVV | ≤ 0.25
53 | TLKW | ≤ 0.25
54 | AHTM | 5.22
55 | GYFD | ≤ 0.25
56 | YFEE | ≤ 0.25
57 | VDSR | ≤ 0.25
58 | MDFT | ≤ 0.25
59 | WYAR | ≤ 0.25
60 | VSRV | ≤ 0.25
61 | GVSQ | 2.65
62 | SEIE | ≤ 0.25
63 | SSDT | ≤ 0.25
64 | HWDN | ≤ 0.25
65 | NVHF | ≤ 0.25
66 | VWDD | ≤ 0.25
67 | GMAE | ≤ 0.25
68 | TNER | ≤ 0.25
69 | HYGN | ≤ 0.25
70 | LQFM | 2.67
71 | KIFP | ≤ 0.25
72 | PNHW | ≤ 0.25

Row | Variant | enrichment ratio
73 | MCGV | 13.4
74 | EMDA | ≤ 0.25
75 | MSYE | 5.11
76 | KCGS | ≤ 0.25
77 | NWRF | ≤ 0.25
78 | AWHW | ≤ 0.25
79 | TRTP | ≤ 0.25
80 | WHYG | ≤ 0.25
81 | GAYR | ≤ 0.25
82 | VLPR | ≤ 0.25
83 | MQIV | ≤ 0.25
84 | DMLL | ≤ 0.25
85 | MGVT | ≤ 0.25
86 | WARN | ≤ 0.25
87 | LWFS | ≤ 0.25
88 | KTMK | ≤ 0.25
89 | GNNG | ≤ 0.25
90 | QAIT | ≤ 0.25
91 | PSEY | ≤ 0.25
92 | KEWF | ≤ 0.25
93 | VPTH | ≤ 0.25
94 | YKSF | ≤ 0.25
95 | VLDE | ≤ 0.25
96 | HCTT | ≤ 0.25

Row | Variant | enrichment ratio
97 | RWPR | ≤ 0.25
98 | DMSM | ≤ 0.25
99 | LHKS | ≤ 0.25
100 | NNQI | 2.97
101 | LCCW | ≤ 0.25
102 | MGFY | 4.26
103 | PGWI | ≤ 0.25
104 | IPDF | ≤ 0.25
105 | MICC | 29.6
106 | IMYL | ≤ 0.25
107 | TWNH | ≤ 0.25
108 | SKCC | 5.39
109 | WPNI | ≤ 0.25
110 | ADMS | ≤ 0.25
111 | FPRG | ≤ 0.25
112 | PNFR | ≤ 0.25
113 | DIMK | ≤ 0.25
114 | FDCT | ≤ 0.25
115 | VLQA | ≤ 0.25
116 | IQQI | ≤ 0.25
117 | ILHQ | ≤ 0.25
118 | FMDS | ≤ 0.25
119 | WRLP | ≤ 0.25
120 | STPT | 0.34

Row | Variant | enrichment ratio
121 | INHV | ≤ 0.25
122 | YTPY | ≤ 0.25
123 | WDSN | ≤ 0.25
124 | DANC | ≤ 0.25
125 | WYAD | ≤ 0.25
126 | RQTW | ≤ 0.25
127 | RFHI | ≤ 0.25
128 | VTPY | ≤ 0.25
129 | HLRG | ≤ 0.25
130 | VRFM | ≤ 0.25
131 | TINK | 7.27
132 | LRWA | ≤ 0.25
133 | HGGI | ≤ 0.25
134 | GPMR | ≤ 0.25
135 | GHWP | ≤ 0.25
136 | MIHR | ≤ 0.25
137 | FGIG | ≤ 0.25
138 | RTGC | ≤ 0.25
139 | SVTQ | 4.76
140 | FKNL | ≤ 0.25
141 | NSHT | ≤ 0.25
142 | AQYD | ≤ 0.25
143 | MLVV | ≤ 0.25
144 | LCQT | ≤ 0.25

Row | Variant | enrichment ratio
145 | YRFQ | ≤ 0.25
146 | LNIH | ≤ 0.25
147 | FCTY | ≤ 0.25
148 | YTTS | ≤ 0.25
149 | RGMT | ≤ 0.25
150 | YFWQ | ≤ 0.25
151 | VFHE | ≤ 0.25
152 | PTMD | ≤ 0.25
153 | YTDA | ≤ 0.25
154 | KESC | ≤ 0.25
155 | IIWK | ≤ 0.25
156 | IQMD | ≤ 0.25
157 | EFQW | ≤ 0.25
158 | HGSF | ≤ 0.25
159 | QSLM | ≤ 0.25
160 | TGHF | 1.61
161 | GQIR | ≤ 0.25
162 | QGLV | 7.45
163 | LLGC | ≤ 0.25
164 | AREM | ≤ 0.25
165 | VWFP | ≤ 0.25
166 | PLQN | ≤ 0.25
167 | PGKA | ≤ 0.25
168 | IYGS | ≤ 0.25

Row | Variant | enrichment ratio
169 | HWPL | ≤ 0.25
170 | FQYN | ≤ 0.25
171 | LHYQ | ≤ 0.25
172 | SDMA | 7.11
173 | IYIT | ≤ 0.25
174 | RMFA | ≤ 0.25
175 | LDAW | ≤ 0.25
176 | TLEC | ≤ 0.25
177 | SARG | ≤ 0.25
178 | GQAN | ≤ 0.25
179 | QAWC | 2.72
180 | KCCH | ≤ 0.25
181 | RYLL | ≤ 0.25
182 | NFYH | ≤ 0.25
183 | WGKD | ≤ 0.25
184 | TQKI | ≤ 0.25
185 | PSAL | ≤ 0.25
186 | QLKH | ≤ 0.25
187 | NKHN | ≤ 0.25
188 | FNDY | ≤ 0.25
189 | SIAD | 7.06
190 | YKLW | ≤ 0.25
191 | QIIH | ≤ 0.25
192 | REFW | ≤ 0.25

Row | Variant | enrichment ratio
193 | KHWY | ≤ 0.25
194 | FYHG | ≤ 0.25
195 | NEVF | ≤ 0.25
196 | GMNH | ≤ 0.25
197 | FTST | ≤ 0.25
198 | KPVP | ≤ 0.25
199 | EWLR | ≤ 0.25
200 | VFAW | ≤ 0.25
201 | WECV | ≤ 0.25
202 | VCTF | ≤ 0.25
203 | QLKS | ≤ 0.25
204 | DNYV | ≤ 0.25
205 | GCMW | ≤ 0.25
206 | WPAQ | ≤ 0.25
207 | THDS | ≤ 0.25
208 | QNHV | ≤ 0.25
209 | HQNR | ≤ 0.25
210 | SKKR | 0.677
211 | WDHK | ≤ 0.25
212 | GNYV | ≤ 0.25
213 | GQMH | ≤ 0.25
214 | TAAE | ≤ 0.25
215 | RMHK | ≤ 0.25
216 | GTWE | ≤ 0.25

Row | Variant | enrichment ratio
217 | QAYL | 9.56
218 | RCIW | ≤ 0.25
219 | GLQM | ≤ 0.25
220 | GTFI | ≤ 0.25
221 | YLPY | ≤ 0.25
222 | SCET | ≤ 0.25
223 | IGHD | ≤ 0.25
224 | YMLG | ≤ 0.25
225 | SIEP | ≤ 0.25
226 | IMHV | ≤ 0.25
227 | PGVC | ≤ 0.25
228 | YEAF | ≤ 0.25
229 | MAFV | 6.76
230 | FCRT | ≤ 0.25
231 | FQIM | ≤ 0.25
232 | QSLA | ≤ 0.25
233 | RWFE | ≤ 0.25
234 | HTPE | ≤ 0.25
235 | ISQY | ≤ 0.25
236 | FGEV | ≤ 0.25
237 | VMHC | ≤ 0.25
238 | QHRA | ≤ 0.25
239 | WCPG | ≤ 0.25
240 | TGKT | ≤ 0.25

Row | Variant | enrichment ratio
241 | FAAF | ≤ 0.25
242 | MNDA | ≤ 0.25
243 | GRIT | ≤ 0.25
244 | GQMY | ≤ 0.25
245 | HMRC | ≤ 0.25
246 | NSDK | ≤ 0.25
247 | MKEI | ≤ 0.25
248 | SPVP | ≤ 0.25
249 | VVIP | ≤ 0.25
250 | VKRC | ≤ 0.25
251 | RGII | ≤ 0.25
252 | TSIT | ≤ 0.25
253 | PNWC | ≤ 0.25
254 | MWGT | ≤ 0.25
255 | NCVW | ≤ 0.25
256 | NAST | ≤ 0.25
257 | EYTA | ≤ 0.25
258 | IIRR | ≤ 0.25
259 | REII | ≤ 0.25
260 | MSVA | ≤ 0.25
261 | RWHH | ≤ 0.25
262 | IQGE | ≤ 0.25
263 | RSNL | ≤ 0.25
264 | PNVQ | ≤ 0.25

Row | Variant | enrichment ratio
265 | GSMD | ≤ 0.25
266 | LCRS | ≤ 0.25
267 | FYTN | ≤ 0.25
268 | AQTR | ≤ 0.25
269 | ADCC | 4.94
270 | GNKC | ≤ 0.25
271 | HWSG | ≤ 0.25
272 | DQIS | ≤ 0.25
273 | TDFT | 1.54
274 | FHTA | ≤ 0.25
275 | THYI | ≤ 0.25
276 | QETP | ≤ 0.25
277 | ARHP | ≤ 0.25
278 | WVHY | ≤ 0.25
279 | RKFH | ≤ 0.25
280 | WHPD | ≤ 0.25
281 | PAHV | ≤ 0.25
282 | HEGV | ≤ 0.25
283 | YEKN | ≤ 0.25
284 | WILL | ≤ 0.25
285 | ADYC | ≤ 0.25
286 | KCML | ≤ 0.25
287 | VLAE | ≤ 0.25
288 | TVDE | ≤ 0.25

Row | Variant | enrichment ratio
289 | WFHL | ≤ 0.25
290 | FPKC | ≤ 0.25
291 | APTA | ≤ 0.25
292 | QNAL | 0.945
293 | VVSR | ≤ 0.25
294 | ADGW | ≤ 0.25
295 | LRYM | ≤ 0.25
296 | HWLK | ≤ 0.25
297 | PHTL | ≤ 0.25
298 | KNNA | ≤ 0.25
299 | KQSC | ≤ 0.25
300 | VFCI | ≤ 0.25
301 | IPPY | ≤ 0.25
302 | YTNM | ≤ 0.25
303 | LWAI | ≤ 0.25
304 | IFFP | ≤ 0.25
305 | SRFQ | ≤ 0.25
306 | PINL | ≤ 0.25
